Test results published in US5120830A, “Inhibitory peptides against α-2, β-1 mediated mg^++ dependent adhesion of platelets to collagen” (Washington University, priority 1990, dated 1992).
pIC50: −log10 of the molar value. Entries after “also recorded” stand apart in the source; their conditions may differ. Like-named read-outs stand apart in the source and are kept apart here. Not every detail of the peptide structures is certain; ends, links or a residue may be inferred. Some entries repeat one wording, which the source may state once for all of them. Where a SMILES comes first, the peptide text is derived from it. Where no end group is shown, it is not given here.

What was measured:
[1] = target: T1, α2 β1 integrin (Homo sapiens, UniProt P05556+P17301); experiment: Mg++-dependent adhesion of 51Cr-labeled platelets to type I collagen substrates, peptide inhibition; format: cell-based
T1 construct: Mg^++ -dependent adhesion of platelets, which use the α2 β1 integrin as a collagen specific receptor; endogenous in cells; host or cells: washed 51Cr-labelled platelets
T1 sequence (P17301 30-1181): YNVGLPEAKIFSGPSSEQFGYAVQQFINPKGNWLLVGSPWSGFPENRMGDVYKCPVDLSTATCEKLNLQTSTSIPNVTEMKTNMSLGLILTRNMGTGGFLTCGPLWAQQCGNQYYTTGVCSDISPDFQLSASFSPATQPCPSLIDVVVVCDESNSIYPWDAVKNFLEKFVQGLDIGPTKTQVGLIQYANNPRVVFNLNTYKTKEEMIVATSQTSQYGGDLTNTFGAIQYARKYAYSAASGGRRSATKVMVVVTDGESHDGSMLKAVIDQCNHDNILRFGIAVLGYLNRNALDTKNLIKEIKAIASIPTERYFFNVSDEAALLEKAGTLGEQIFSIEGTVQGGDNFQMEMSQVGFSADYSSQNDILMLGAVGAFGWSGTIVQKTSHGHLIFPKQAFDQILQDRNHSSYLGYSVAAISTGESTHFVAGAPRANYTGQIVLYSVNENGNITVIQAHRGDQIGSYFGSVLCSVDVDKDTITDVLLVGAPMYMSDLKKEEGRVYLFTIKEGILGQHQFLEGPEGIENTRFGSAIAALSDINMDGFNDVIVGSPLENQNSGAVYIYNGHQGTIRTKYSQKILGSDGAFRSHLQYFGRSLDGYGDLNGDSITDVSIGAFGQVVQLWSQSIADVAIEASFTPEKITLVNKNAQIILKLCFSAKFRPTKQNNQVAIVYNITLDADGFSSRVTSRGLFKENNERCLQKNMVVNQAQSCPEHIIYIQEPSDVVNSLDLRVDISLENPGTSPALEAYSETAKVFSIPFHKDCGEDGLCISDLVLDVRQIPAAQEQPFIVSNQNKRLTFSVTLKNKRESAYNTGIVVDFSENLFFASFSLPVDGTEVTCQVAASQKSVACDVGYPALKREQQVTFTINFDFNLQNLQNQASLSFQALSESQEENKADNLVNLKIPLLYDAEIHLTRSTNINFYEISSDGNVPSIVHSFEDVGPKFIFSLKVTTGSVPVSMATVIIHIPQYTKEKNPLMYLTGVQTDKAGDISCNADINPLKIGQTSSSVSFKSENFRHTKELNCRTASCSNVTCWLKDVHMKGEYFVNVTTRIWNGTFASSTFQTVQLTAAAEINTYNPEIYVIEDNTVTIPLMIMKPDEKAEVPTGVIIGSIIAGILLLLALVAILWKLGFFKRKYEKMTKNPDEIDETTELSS
T1 sequence (P05556 21-798): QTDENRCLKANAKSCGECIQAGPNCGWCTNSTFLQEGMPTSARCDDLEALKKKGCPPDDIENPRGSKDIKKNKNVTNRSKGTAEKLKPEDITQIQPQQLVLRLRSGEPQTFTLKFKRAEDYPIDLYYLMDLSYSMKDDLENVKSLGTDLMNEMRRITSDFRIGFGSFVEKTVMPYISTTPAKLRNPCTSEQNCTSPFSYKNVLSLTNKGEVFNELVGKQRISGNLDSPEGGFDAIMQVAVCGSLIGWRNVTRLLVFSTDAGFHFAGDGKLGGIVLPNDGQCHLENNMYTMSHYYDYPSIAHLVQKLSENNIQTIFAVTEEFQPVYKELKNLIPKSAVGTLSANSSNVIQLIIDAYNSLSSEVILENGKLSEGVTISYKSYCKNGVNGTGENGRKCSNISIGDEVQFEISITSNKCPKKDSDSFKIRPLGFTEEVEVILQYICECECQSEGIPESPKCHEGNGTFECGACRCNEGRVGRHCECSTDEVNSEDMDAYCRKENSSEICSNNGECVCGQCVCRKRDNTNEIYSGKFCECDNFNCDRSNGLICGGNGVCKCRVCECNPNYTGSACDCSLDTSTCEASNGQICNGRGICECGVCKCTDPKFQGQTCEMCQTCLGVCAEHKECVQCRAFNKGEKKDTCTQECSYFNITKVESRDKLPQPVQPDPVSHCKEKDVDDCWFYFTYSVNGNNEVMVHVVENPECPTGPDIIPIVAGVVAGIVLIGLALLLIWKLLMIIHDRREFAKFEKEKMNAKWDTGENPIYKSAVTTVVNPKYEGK
Procedure: Platelet Adhesion-Platelets were washed and labeled with ^51 CrO4 as described in detail by Haverstick et al (22). Platelet adhesion to substrate composed of 0.5% BSA or 20 μg/ml of either type I collagen, laminin or fibronectin in polystryene dishes was determined as previously described in detail (7). Alternately, adhesion assays were carried out in 96 well microtiter dishes (Immulon II, Dynatech). In this case substrate coating- and adhesion assay volumes were adjusted to 100 μl and wash volumes were adjusted to 140 μl per well. Platelets were permitted to adhere for 60 min at a concentration of 1.3-- to 1.8×10^8 platelets/ml, then wash five times in adhesion assay buffer before being lysed with two […] aliquots of 2% SDS which were subsequently pooled and counted.
Peptide Inhibition--After labeling and washing, cells were resuspended at 2.6- to 3.6×10^5 /ml for platelets or 2×10^5 /ml for T47D cells. Aliquots were added to equal volumes of buffer containing appropriate concentrations of the peptides and divalent cations and preincubated for 15 min before being added to the adhesive substrates. Adhesion was quantitated as described above.

[2] = test system: T47D cells; experiment: Adhesion of T47D carcinoma cells to collagen substrates, peptide or antibody inhibition; format: cell-based, human; conditions: 2 mM Mg++
[3] = test system: T47D cells; experiment: Adhesion of T47D carcinoma cells to laminin substrates, peptide or antibody inhibition; format: cell-based, human; conditions: 2 mM Mg++, 1 mM Mn++ and 1 mM Ca++
[4] = target: T2, α6 β1 integrin (Homo sapiens, UniProt P05556+P23229); experiment: Platelet adhesion to laminin substrates, peptide inhibition; format: cell-based; conditions: KDGEA at 4 mM, 2 mM Mg++
T2 construct: the adhesion to laminin, mediated by the α6 β1 integrin (24); endogenous in cells; host or cells: washed 51Cr-labelled platelets
T2 sequence (P23229 24-938 limits assumed): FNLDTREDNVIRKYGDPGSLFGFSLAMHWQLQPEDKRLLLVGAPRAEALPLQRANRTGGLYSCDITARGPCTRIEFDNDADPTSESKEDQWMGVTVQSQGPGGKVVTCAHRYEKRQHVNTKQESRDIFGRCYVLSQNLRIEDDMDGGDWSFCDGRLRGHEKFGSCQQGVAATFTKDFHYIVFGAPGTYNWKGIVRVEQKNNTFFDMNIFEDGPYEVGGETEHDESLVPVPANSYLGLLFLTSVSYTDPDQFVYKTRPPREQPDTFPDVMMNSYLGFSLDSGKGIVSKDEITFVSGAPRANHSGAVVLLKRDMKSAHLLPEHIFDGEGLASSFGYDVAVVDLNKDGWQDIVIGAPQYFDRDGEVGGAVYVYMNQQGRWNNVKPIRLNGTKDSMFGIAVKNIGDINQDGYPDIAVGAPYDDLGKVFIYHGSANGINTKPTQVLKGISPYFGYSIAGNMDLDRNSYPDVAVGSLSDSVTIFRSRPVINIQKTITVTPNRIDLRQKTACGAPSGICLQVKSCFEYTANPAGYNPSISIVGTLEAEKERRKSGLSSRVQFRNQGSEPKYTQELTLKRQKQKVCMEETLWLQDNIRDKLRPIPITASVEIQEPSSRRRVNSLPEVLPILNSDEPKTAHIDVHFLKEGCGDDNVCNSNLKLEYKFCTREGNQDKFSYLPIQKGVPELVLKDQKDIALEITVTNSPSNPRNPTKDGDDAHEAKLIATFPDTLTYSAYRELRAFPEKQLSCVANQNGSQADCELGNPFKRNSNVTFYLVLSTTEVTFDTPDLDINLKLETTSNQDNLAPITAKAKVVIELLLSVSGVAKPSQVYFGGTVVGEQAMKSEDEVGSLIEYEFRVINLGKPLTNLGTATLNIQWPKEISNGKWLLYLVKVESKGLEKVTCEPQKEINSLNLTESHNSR
T2 sequence (P23229 942-1130 limits assumed): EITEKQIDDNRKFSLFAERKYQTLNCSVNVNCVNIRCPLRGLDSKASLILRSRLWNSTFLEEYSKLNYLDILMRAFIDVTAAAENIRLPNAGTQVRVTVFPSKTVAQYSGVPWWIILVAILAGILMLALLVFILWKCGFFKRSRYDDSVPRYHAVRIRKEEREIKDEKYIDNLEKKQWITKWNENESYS
T2 sequence (P05556 21-798): as the sequence (P05556 21-798) above

[5] = target: T3, α5 β1 integrin (Homo sapiens, UniProt P05556+P08648); experiment: Platelet adhesion to fibronectin substrates, peptide inhibition; format: cell-based; conditions: KDGEA at 4 mM, 2 mM Mg++
T3 construct: the adhesion of platelets to fibronectin, mediated by the α5 β1 integrin (23); endogenous in cells; host or cells: washed 51Cr-labelled platelets
T3 sequence (P08648 42-894 limits assumed): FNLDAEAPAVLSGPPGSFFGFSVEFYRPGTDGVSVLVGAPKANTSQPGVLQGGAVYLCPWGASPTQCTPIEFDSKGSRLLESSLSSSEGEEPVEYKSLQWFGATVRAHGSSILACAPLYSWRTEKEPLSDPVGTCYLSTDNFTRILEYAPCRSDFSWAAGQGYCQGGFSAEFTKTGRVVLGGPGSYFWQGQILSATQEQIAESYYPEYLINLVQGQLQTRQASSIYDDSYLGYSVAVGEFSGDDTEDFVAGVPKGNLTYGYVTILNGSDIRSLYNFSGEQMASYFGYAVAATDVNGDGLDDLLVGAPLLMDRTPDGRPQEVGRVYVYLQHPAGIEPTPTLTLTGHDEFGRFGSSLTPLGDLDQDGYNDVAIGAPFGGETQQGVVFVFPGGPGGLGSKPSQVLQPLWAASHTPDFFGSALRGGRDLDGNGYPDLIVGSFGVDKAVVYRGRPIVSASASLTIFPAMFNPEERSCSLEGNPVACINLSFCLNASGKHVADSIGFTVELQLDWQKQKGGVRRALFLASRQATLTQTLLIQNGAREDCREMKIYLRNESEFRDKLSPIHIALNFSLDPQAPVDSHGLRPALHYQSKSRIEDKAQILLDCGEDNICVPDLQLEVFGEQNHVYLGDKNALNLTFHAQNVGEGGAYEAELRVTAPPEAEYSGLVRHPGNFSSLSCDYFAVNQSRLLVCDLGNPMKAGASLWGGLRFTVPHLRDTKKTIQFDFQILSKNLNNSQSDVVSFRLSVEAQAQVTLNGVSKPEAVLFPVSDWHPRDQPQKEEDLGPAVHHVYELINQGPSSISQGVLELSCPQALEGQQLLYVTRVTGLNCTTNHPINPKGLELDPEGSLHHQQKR
T3 sequence (P08648 895-1049 limits assumed): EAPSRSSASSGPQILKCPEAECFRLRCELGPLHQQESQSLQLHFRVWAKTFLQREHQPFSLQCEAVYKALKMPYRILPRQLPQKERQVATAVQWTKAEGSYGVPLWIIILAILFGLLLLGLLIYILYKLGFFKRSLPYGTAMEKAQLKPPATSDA
T3 sequence (P05556 21-798): as the sequence (P05556 21-798) above

Compound | Inhibition of Mg++-dependent platelet adhesion to collagen (in words) [1] | Inhibition of T47D cell adhesion to collagen by peptide (in words) [2] | Inhibition of T47D cell adhesion to laminin by peptide (in words) [3] | also measured
C[C@H](NC(=O)[C@H](CCC(=O)O)NC(=O)CNC(=O)[C@@H](N)CC(=O)O)C(N)=O [DGEA] (H-DGEA-NH2) | inhibit platelet adhesion to collagen; also recorded: inhibited platelet adhesion to collagen at concentrations comparable to the parent peptide 430; also recorded: consistently slightly more effective than KDGEA | – | – | –
GPAGKDGEAGAQG-NH2 [peptide 430, GPAGKDGEAGAQG] | capable of inhibiting platelet adhesion to collagen in a concentration-dependent manner | – | – | Concentration at which inhibition of platelet adhesion to collagen was virtually complete [1]: 5.4 mM; Inhibition of Mg++-dependent platelet adhesion to collagen (in words) ([1]; listed as peptide 430-442): inhibited in a concentration dependent fashion
SPGFQGLPGPAG-NH2 [peptide 461] | Neither peptide 461 nor 490 had any detectable inhibitory activity | – | – | Inhibition of Mg++-dependent platelet adhesion to collagen (in words) ([1]; listed as peptide 461-472): neither synthetic peptide 461-472 (Δ) nor 490-502 affects platelet adhesion
KDGEA-NH2 [KDGEA] | inhibit platelet adhesion to collagen; also recorded: inhibits the Mg^++ -dependent adhesion of platelets to collagen; also recorded: inhibited platelet adhesion to collagen at concentrations comparable to the parent peptide 430 | inhibited adhesion of T47D cells to both collagen and laminin substrates in a concentration dependent manner | inhibited adhesion of T47D cells to both collagen and laminin substrates in a concentration dependent manner | pIC50 ([2]; read-out: Half-maximal inhibition of T47D cell adhesion to collagen): 2.60 to 2.70; pIC50 ([3]; read-out: Half-maximal inhibition of T47D cell adhesion to laminin): 2.60 to 2.70; Effect on platelet adhesion to laminin (in words) [4]: but not to fibronectin or laminin; also recorded: not diminished; Effect on platelet adhesion to fibronectin (in words) [5]: but not to fibronectin or laminin; also recorded: not diminished
NCCCC[C@H](N)C(=O)N[C@@H](CC(=O)O)C(=O)NCC(=O)N[C@@H](CCC(=O)O)C(N)=O [KDGE] (H-KDGE-NH2) | does not; also recorded: devoid of inhibitory activity and at higher concentrations tended to enhance platelet adhesion to collagen | did not significantly reduce adhesion; also recorded: showed no inhibitory activity at comparable concentrations | did not significantly reduce adhesion; also recorded: showed no inhibitory activity at comparable concentrations | –
GAPGPSGARGERG-NH2 [peptide 490] | Neither peptide 461 nor 490 had any detectable inhibitory activity | – | – | Inhibition of Mg++-dependent platelet adhesion to collagen (in words) ([1]; listed as 490-502): neither synthetic peptide 461-472 (Δ) nor 490-502 affects platelet adhesion
NCC(=O)NCC(=O)NCC(=O)NCC(=O)NCC(N)=O [GGGGG, reference compound] | – | did not significantly reduce adhesion | did not significantly reduce adhesion | Inhibition of T47D cell adhesion to collagen by peptide (in words) ([2]; listed as pentaglycine): showed no inhibitory activity at comparable concentrations; Inhibition of T47D cell adhesion to laminin by peptide (in words) ([3]; listed as pentaglycine): showed no inhibitory activity at comparable concentrations
KDGAA-NH2 [KDGAA] | do not inhibit Mg^++ -dependent adhesion of platelets to collagen; also recorded: lacking the ability to inhibit specifically α2 β1 -mediated platelet adhesion to collagen | did not significantly reduce adhesion; also recorded: showed no inhibitory activity at comparable concentrations | did not significantly reduce adhesion; also recorded: showed no inhibitory activity at comparable concentrations | –
KAGEA-NH2 [KAGEA] | do not inhibit Mg^++ -dependent adhesion of platelets to collagen; also recorded: lacking the ability to inhibit specifically α2 β1 -mediated platelet adhesion to collagen | – | – | –
